From patent US20250163048A1 (Tango Therapeutics, Inc., priority 2022, published 2025) come the findings set out here.

pIC50: −log10 of the molar value.

The subject of assay [1] is HAP1 MTAP-intact cell line. In words: SDMA in-cell western assay, HAP1 MTAP-intact. Particulars: Homo sapiens, HAP1, read-out: Hap1 MTAP intact IC50, SDMA in-cell western, HAP1 MTAP-intact cell line.
The subject of a further assay is MTAP-deleted cell line. In words: viability assay for the MTAP-deleted cell line. The assay is classed as cell-based. The following applies: Homo sapiens, HAP1, viability assay.
Assay [2] relates to HAP1 MTAP-deleted cell line. Nature of the assay: SDMA in-cell western assay, HAP1 MTAP-deleted. The following applies: for pIC50 / IC90: Homo sapiens; for pIC50: HAP1, read-out: Hap1 MTAP deleted IC50, SDMA in-cell western, HAP1 MTAP-deleted cell line; for Hap1 MTAP intact/deleted ratio: IC50 ratio between HAP1 MTAP-intact and HAP1 MTAP-deleted cell line, SDMA in-cell western; for IC90: HAP1, read-out: Hap1 MTAP deleted IC90, SDMA in-cell western, HAP1 MTAP-deleted cell line.

The pIC50 is −log10 of the IC50, conventionally taken in molar units. In the case of `C[C@H]1CC[C@H](c2ccc3sc(C4CCN(C5CC5)CC4)nc3c2)N(C(=O)C(=O)Nc2cnc3c(c2)C(=O)NCC3)C1` [Compound 4, 2-((2R,5S)-2-(2-(1-cyclopropylpiperidin-4-yl)benzo[d]thiazol-5-yl)-5-methylpiperidin-1-yl)-2-oxo-N-(5-oxo-5,6,7,8-tetrahydro-1,6-naphthyridin-3-yl)acetamide], the pIC50 in assay [1] is under 7.30; in the assay on MTAP-deleted cell line it was 6.00 to 7.00; in assay [2], 7.30 to 8.30. Besides, the “Hap1 MTAP intact/deleted ratio” value in assay [2] is “C (“C” indicates an IC50 ratio of less than 15 fold)”.
In general, IC90 refers to the point of the concentration-response curve where the effect stands at 90%. For the molecule `C[C@H]1CC[C@H](c2ccc3nn(C4CCN(C)CC4)cc3c2)N(C(=O)C(=O)Nc2cncc3cn[nH]c23)C1` [Compound 84, 2-oxo-N-(1H-pyrazolo[4,3-c]pyridin-7-yl)-2-[(2R,5S)-5-methyl-2-[2-(1-methyl-4-piperidyl)indazol-5-yl]-1-piperidyl]acetamide], the pIC50 in assay [1] is under 7.30; in the assay with MTAP-deleted cell line, over 7.00; in assay [2], over 8.30. For the same molecule, in assay [2], the IC90 is under 75 nM. The “Hap1 MTAP intact/deleted ratio” value in assay [2] is recorded as “B (“B” indicates an IC50 ratio greater than or equal to 15 fold but lower than 30 fold)”.
For `C[C@H]1CC[C@H](c2ccc(NC(=O)CCN(C)C)cc2)N(C(=O)C(=O)Nc2ccn3ccnc3c2)C1` [Compound 52, 3-(Dimethylamino)-N-[4-[(2R,5S)-1-[2-(imidazo[1,2-a]pyridin-7-ylamino)-2-oxo-acetyl]-5-methyl-2-piperidyl]phenyl]propanamide] the same measures were under 7.30, 6.00 to 7.00, 7.30 to 8.30, over 125 nM and “B (“B” indicates an IC50 ratio greater than or equal to 15 fold but lower than 30 fold)”.
For `C[C@H]1CC[C@H](c2ccc3scnc3c2)N(C(=O)C(=O)Nc2cnc(N)c3cc[nH]c23)C1` [Compound 123] the same measures were under 7.30, 6.00 to 7.00, over 8.30, under 75 nM and “C (“C” indicates an IC50 ratio of less than 15 fold)”.
`CO[C@H]1C[C@@H](c2ccc(F)cc2)N(C(=O)C(=O)Nc2cnc(N)c3cn[nH]c23)C[C@@H]1C` (single isomer, unassigned) [Compound 160]: in assay [1], the pIC50 was under 7.30. Further, in assay [2], the negative logarithm of the IC50 (pIC50) is under 7.30, the IC90 is over 125 nM and the “Hap1 MTAP intact/deleted ratio” value is “C (“C” indicates an IC50 ratio of less than 15 fold)”.
Take `C[C@H]1CC[C@H](c2ccc3sc(C4CCOCC4)nc3c2)N(C(=O)C(=O)Nc2cncc3cn[nH]c23)C1` (single isomer, unassigned) [Compound 97]: the pIC50 in assay [1] was under 7.30; with MTAP-deleted cell line, over 7.00; in assay [2], over 8.30. Also, the “Hap1 MTAP intact/deleted ratio” value in assay [2] is “A (“A” indicates an IC50 ratio greater than or equal to 30 fold)”.
Turning to `CO[C@@H]1CN(C)CC[C@H]1c1nc2cc([C@H]3CC[C@H](C)CN3C(=O)C(=O)Nc3cncc4cn[nH]c34)ccc2s1` (mixture of isomers) [Compound 128, 2-((2R,5S)-2-(2-(rac-(3S,4R)-3-methoxy-1-methylpiperidin-4-yl)benzo[d]thiazol-5-yl)-5-methylpiperidin-1-yl)-2-oxo-N-(1H-pyrazolo[4,3-c]pyridin-7-yl)acetamide], the pIC50 is under 7.30 in assay [1], over 7.00 in the assay with MTAP-deleted cell line and over 8.30 in assay [2]. The “Hap1 MTAP intact/deleted ratio” value in assay [2] is listed as “A (“A” indicates an IC50 ratio greater than or equal to 30 fold)”.
On to `C[C@H]1CC[C@H](c2ccc3ccc(C4CCN(C)CC4)nc3c2)N(C(=O)C(=O)Nc2cnc(N)c3cn[nH]c23)C1` [Compound 65, N-(4-amino-1H-pyrazolo[4,3-c]pyridin-7-yl)-2-((2R,5S)-5-methyl-2-(2-(1-methylpiperidin-4-yl)quinolin-7-yl)piperidin-1-yl)-2-oxoacetamide], for which the pIC50 in assay [1] was 7.30 to 8.30; in the assay on MTAP-deleted cell line, over 7.00; in assay [2], 7.30 to 8.30. Moreover, the IC90 in assay [2] was under 75 nM. In assay [2], the “Hap1 MTAP intact/deleted ratio” value is “C (“C” indicates an IC50 ratio of less than 15 fold)”.
On to `C[C@H]1CC[C@H](c2ccc3sc(C4CCN(C)C(C)(C)C4)nc3c2)N(C(=O)C(=O)Nc2cncc3cn[nH]c23)C1` (mixture of isomers) [Compound 59, 2-((2R,5S)-5-methyl-2-(2-(1,2,2-trimethylpiperidin-4-yl)benzo[d]thiazol-5-yl)piperidin-1-yl)-2-oxo-N-(1H-pyrazolo[4,3-c]pyridin-7-yl)acetamide], for which the pIC50 in assay [1] is 7.30 to 8.30. Also, in the assay on MTAP-deleted cell line, the pIC50 was over 7.00. Moreover, in assay [2], the pIC50 is over 8.30, the IC90 is under 75 nM and the “Hap1 MTAP intact/deleted ratio” value is listed as “C (“C” indicates an IC50 ratio of less than 15 fold)”.
